# Some of the results follow. Shown are side measurements of this screen, not its main read-out; they come without a call.
# How the values were obtained:
# Assay in all cases: Primary Screen for Target Class Profiling of Small Molecule Inhibitors of Methyltransferases
# [1] = molecular target: Glycine N-methyltransferase (Homo sapiens) (UniProt Q14749); conditions: purified enzyme, MTase-Glo SAH luminescence; measured here: GNMT inhibition; at 40 µM; stronger effect = lower value
# Method in brief: (§1)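 Each enzyme was assayed with SAM and its substrate. SAH formation detected by MTase-Glo luminescence; single-point 40 uM screen[…].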
# [2] = molecular target: Guanidinoacetate N-methyltransferase (Homo sapiens) (UniProt Q14353); conditions: purified enzyme, MTase-Glo SAH luminescence; measured here: GAMT inhibition; at 40 µM; stronger effect = lower value
# Method in brief: as §1
# [3] = molecular target: Histamine N-methyltransferase (Homo sapiens) (UniProt P50135); conditions: purified enzyme, MTase-Glo SAH luminescence; measured here: HNMT inhibition; at 40 µM; stronger effect = lower value
# Method in brief: as §1
# [4] = molecular target: Nicotinamide N-methyltransferase (Homo sapiens) (UniProt P40261); conditions: purified enzyme, MTase-Glo SAH luminescence; measured here: NNMT inhibition; at 40 µM; stronger effect = lower value
# Method in brief: as §1
# [5] = molecular target: Phenylethanolamine N-methyltransferase (Homo sapiens) (UniProt P11086); conditions: purified enzyme, MTase-Glo SAH luminescence; measured here: PNMT inhibition; at 40 µM; stronger effect = lower value
# Method in brief: as §1
# % is set by controls: 0 for no effect and ±100 for the full control effect.
Compound,"activity change, negative = inhibition [1] [%]","activity change, negative = inhibition [2] [%]","activity change, negative = inhibition [3] [%]","activity change, negative = inhibition [4] [%]","activity change, negative = inhibition [5] [%]"
CCCn1c(C)cnc1CC1CCN(S(=O)(=O)CCC)CC1,-1.84,-1.44,-14.3,-14.1,-2.18
COc1ccccc1CN1C(=O)c2cc(C(C)(C)C)nn2CC1(C)C(=O)NCc1ccccc1 (stereo not given),3.93,4.38,2.17,-16.5,-1.87
Cc1nnnn1-c1cccc(C(=O)N2CCCC(O)(CN(C)C)CC2)c1 (stereo not given),0.477,-2.08,-7.73,-5.31,-3.31
C=C1/C(=C/C=C2\CCC[C@]3(C)[C@@H]([C@H](C)CC[C@@H](O)C(C)(C)O)CC[C@@H]23)C[C@@H](O)C[C@@H]1O,-12.6,5.22,-6.22,-19.4,-16.2
O=C(NCc1ccncc1)C1c2ccccc2C(=O)N(C2CCCC2)C12CCCCC2 (stereo not given),-9.66,-10,-5.64,-15,-8.66
Cn1c(=O)c2ccc(C(=O)NC3CCCC3)cc2n2c(=O)n(CC(=O)Nc3ccc(F)cc3)nc12,2.84,0,2.2,2.82,2.48
C=C1C(=O)OC2/C=C(\CO)CC/C=C(\C=O)C(O)C(OC(=O)C(C)CC)C12 (stereo not given),4.31,-0.075,5.76,-5.64,8.57
Cc1ccc(NC(=O)CSc2nnc3n(CC(C)C)c(=O)c4ccc(C(=O)NCC(C)C)cc4n23)cc1,0.796,0,-1.2,-6.94,2.34
O=C(Nc1nc2ccc([N+](=O)[O-])cc2s1)C1CCCCC1,-2.28,-4.88,-2.15,-14.8,-12
Cn1c(CNC(=O)C2(C)CCCCC(=O)N2)nc2ccccc21 (stereo not given),-2.28,-1.95,-1.83,-0.191,-5.19
Cn1c(=O)c2ccc(C(=O)NC3CCCC3)cc2n2c(SCC(=O)Nc3ccc(Cl)cc3)nnc12,0.451,0,3.45,2.34,3.47
COCCn1cnc2ccc(-c3cccc(O)c3)nc2c1=O,-7.73,-8.23,-15.3,-12.4,-12.2
O=C(NCc1ccccc1C(F)(F)F)c1cccc2c1CCN2C(=O)C1CC1,-3.57,0.895,0.923,-5.58,0.398
Cc1cc(CN(C)Cc2ccc(F)cc2)no1,-2.38,1.32,2.52,-4.35,0.253
Cc1nnc(-c2ccc3occ(-c4ccc(S(C)=O)cc4)c3c2)o1 (stereo not given),-12.2,3.67,6.37,-13.9,0.55
O=C(c1ccc(Cl)c([N+](=O)[O-])c1)N1CCN(c2ccccc2F)CC1,-3.36,2.4,8.13,-13.8,-2.35
O=C(Nc1ccc(C(F)(F)F)cc1)N[C@@H]1C[C@H](CO)[C@@H](O)[C@H]1O,-3.72,-8.13,-2.48,-12,5.82
CCCn1c(=O)c2ccc(C(=O)NC3CCCC3)cc2n2c(SCC(=O)c3ccccc3)nnc12,0.924,0,0.906,-2.11,2.49
COCCN1CCCC2(CCN(C(=O)CCn3cncn3)C2)C1=O (stereo not given),-2.67,-2.38,-1.62,-6,-1.19
CC(C)CNC(=O)c1ccc2c(=O)n(C)c3nn(CC(=O)NCc4ccccc4Cl)c(=O)n3c2c1,3.52,4.6,9.39,-5.89,-0.518

Compound,"activity change, negative = inhibition [1] [%]","activity change, negative = inhibition [2] [%]","activity change, negative = inhibition [3] [%]","activity change, negative = inhibition [4] [%]","activity change, negative = inhibition [5] [%]"
Cc1cc(C)cc(NC(=O)Cn2nc3n(C(C)C)c(=O)c4ccc(C(=O)NC5CCCC5)cc4n3c2=O)c1,-3.74,0.218,-3.8,2.23,0.277
Cc1ccc(C(C)C)c(O[C@@H]2O[C@H](CO)[C@@H](O)[C@H](O)[C@H]2O)c1,-3.01,0.385,11.8,-12.9,-10.4
Cn1c(=O)n(C)c2cc(S(=O)(=O)Nc3ccc(N4CCN(S(C)(=O)=O)CC4)cc3)ccc21,-6.8,4.45,-1.02,1.01,-1.63
Cc1ccc(-c2ncccc2CNS(=O)(=O)c2ccc(C#N)cc2)cc1,13.6,3.57,10.4,4.83,11
COc1cccc(CN2C(=O)c3cc4sccc4n3CC2(C)C(=O)NC2CCCCCCC2)c1 (stereo not given),-1.88,0,3.92,-3.78,-1.58
CCc1ccc(CNC(=O)c2ncn3c2C(=O)N(C2CC2)C(C)(C(=O)NCc2ccc(F)cc2)C3)cc1 (stereo not given),-4.81,1.85,3.18,-4.09,1.68
Cc1ccc(NC(=O)c2cc3n(n2)CC(C)(C(=O)NC2CCCCCC2)N(C)C3=O)c(Cl)c1 (stereo not given),5.29,0.447,8.51,4.81,4.35
Cc1cnc(CCNC(=O)C2(c3ccccc3)CC2)n1Cc1ccccc1,-5.59,-2.69,-32.7,-15.6,5.83
CSCC[C@@H]1NC(=O)c2cc(NC(=O)c3cc(-c4ccccn4)n[nH]3)ccc2NC1=O,-12.5,-7.86,-6.41,-12.2,0.216
Cc1ccc(C)c(C(=O)Cn2nc3n(Cc4ccc(F)cc4)c(=O)c4ccccc4n3c2=O)c1,-1.48,8.39,2.87,-5.77,-0.42
CCCN1C(=O)c2c(C(=O)NCc3ccccc3Cl)ncn2CC1(C)C(=O)NC1CCCC1 (stereo not given),-1.62,0,2.89,2.17,1.72
O=C(c1cccc(Cl)c1F)N1CCN(Cc2cccc(Nc3nccs3)n2)CC1,-11.5,1.03,1.7,-46.3,-9.93
COC[C@H]1NC(=O)CC[C@H]1C(=O)NC1CCN(Cc2ccccc2)CC1,-1.18,-1.5,-1.02,3.65,3.97
CCCn1c(=O)c2ccc(C(=O)NCC(C)C)cc2n2c(=O)n(CC(=O)Nc3cccc(CC)c3)nc12,2.6,0,2.17,-0.064,4.05
O=C1Nc2ccccc2C12CN(Cc1ccc(C(F)(F)F)cc1)C2,-13.4,-7.11,-10.6,-23,-3.89
CC1(C(=O)NC2CCCCCC2)Cn2c(cc3occc32)C(=O)N1C1CCCC1 (stereo not given),-4.88,0,2.42,-7.15,-1.87
CCn1ncc(CN2CCCCCCNC(=O)[C@@H]3CCC[C@@H]32)c1C,-3.77,1.47,2.44,-4.74,-1.48
FC(F)(F)c1ccccc1-n1ccnc1,-10.1,0.296,-3.71,-13.6,3.7
O=C(O)C1CCc2nnc(C3CCN(C(=O)c4ccccc4)C3)n21 (stereo not given),-6.75,-7.67,-1.53,-16.2,-10.6

# Source: PubChem BioAssay AID1745853 (National Center for Advancing Translational Sciences (NCATS), 2022)
